This is one part of the list.
system: PfAP2-HC AP2 domain (GST-tagged); test: gcPBM binding intensity (ln(normalized median fluorescence intensity)); higher = stronger DNA binding
Procedure, shortened: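 Plasmodium falciparum DNA-binding domains carrying a GST tag were expressed in E. coli and applied for 1 h, at about 25 μg on average, to an Agilent 4 × 180k array. The array held primer-extended double-stranded 36-bp intergenic genomic probes together with negative controls, and binding took place in 1× PBS with 1% milk, 0.2 mg/ml BSA, 0.5% salmon testes DNA and 0.03% Triton X-100. An Alexa488 anti-GST antibody detected bound protein, and the array was scanned at 488 nm. Binding intensity is taken as the highest Masliner-normalised natural-log median intensity across replicate spots of either probe orientation.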

Sequence | gcPBM binding intensity (ln)
AAAAAGTAGTAAAACAGTACAGTATTTATGCCTATT [XGTACX_site6434] | 9.89
AAAAAAAAAAAAAGTACACACTTTTGCGTACATGTA [CACACA_site7449] | 9.65
CATTATTATGATAGTTGTACAATTTTTATAAAAAAT [XGTACX_site4411] | 9.45
ATAAAAATAAAAAGATGTACGTATTTTTTTTTTTTT [XGTACX_site5329] | 9.59
GAAATAGAGAAACACACACACATATATTTATGTATT [CACACA_site3967] | 10.4
TATAAATAAATGCGTACACACTAATAAAAAAAAAAA [CACACA_site4630] | 9.78
AATATATTTTAATACACACACACATATATATATATA [CACACA_site5969] | 10.4
TTTTTTTTAAATATCACACACATATAACATATTCTA [CACACA_site7687] | 9.82
ATATGTATATAAATGTGTACTTATAAATATATATAT [XGTACX_site3250] | 9.87
TTTTTTTTTTTTGAGTGTACTAAAATATTACCTTTT [XGTACX_site646] | 9.49
TGGAAAAATAGGCACACACACATATATACCTATATA [CACACA_site4843] | 10.2
AATATTATAAATGATACACACTTAAAATACACCCAC [CACACA_site5498] | 10.3
TGAATATTTACTTTAGCACACAATTTGTATTTGATT [CACACA_site960] | 9.86
GAATTTATTTTATTTTCACACACAAAAATAAATATC [CACACA_site8762] | 9.79
AATAAATAGATATATACACACATATATGTGTACATA [CACACA_site7476] | 10.1
TTATCCATTTTAATCACACATACTTTACTTTGGAAC [CACACA_site5584] | 9.67
TTCTTTAATAAAATAATCTCAAAGAAAATTTTTTCT [GTGCAC_negctrl_site589] | 9.03
TATAAACATATAAAAAGTACATACCAATTAATATTA [XGTACX_site967] | 9.67
GGATAAAATGCTACGAGTACATAAGCATTTTTCCCT [XGTACX_site7796] | 9.46
TCTTTTAAAAATATAAAAAGGAATATATAAAAATGT [CACACA_negctrl_site332] | 9.56
AATATATTCATCATATCAATATTGTCAAGCAAACGA [TGCATGCA_negctrl_site37] | 9.59
TATTCTGTGTATAAAAGTACAAATATTTAAATGTAT [XGTACX_site8234] | 9.64

Sequence | gcPBM binding intensity (ln)
TTGTATATATTAAATTGTACTTATTTTTTGTATATA [XGTACX_site3251] | 9.63
TACAATTTAAAACACACACACAATAATACATATATA [CACACA_site1251] | 11
TATATTATTTATATTTGTACACAGCGATATGAAATA [XGTACX_site987] | 9.51
ATATTATTATAAACTTCACACATTTTATGGGTTTTT [CACACA_site4631] | 9.71
CGCATATTTTATGTTTGTACTCATATGAATATCATA [XGTACX_site4717] | 9.55
CATAAGCACAAGCACAAGCACACATTTATATATATA [CACACA_site882] | 9.93
ATAGTAATGCATAAATATATATTATATATATATATA [XGTACX_negctrl_site576] | 9.95
CTATTGTTAAATATAATACACACGTTTTTAAAAATA [CACACA_site2183] | 9.62
GTATATATTTTGTATTCATTTGTCACATATAATAGA [CACACA_negctrl_site506] | 9.66
CAAACACCCAAACACACACACACATACATACATACA [CACACA_site8044] | 10.7
TTTTTTTTTTTTTGTGTGCACCTTATTTTTTTGTAT [GTGCAC_site9617] | 9.97
AAAAAAAAAAAAAATTCACACACATATAAAAAATTA [CACACA_site8140] | 10
TAAATTAAGAATTTTACACACATTAAATAAAAAAAA [CACACA_site3638] | 9.71
TTTTTTTATTTTTTTATAAATGTATTTCTATTATTT [CACACA_negctrl_site1562] | 9.69
AAATTAGGAAATTGCACACAAAAAAAAACATATTAT [CACACA_site4074] | 10.2
ATTATATATACATAATGTACATATATATATTACCTT [XGTACX_site7624] | 9.74
TATAAAATGACTATATATAATATTAAAAAAAAAAAA [TGCATGCA_negctrl_site387] | 9.5
AAAATTTCTTTTTTTTGTACATATATAATAATATAT [XGTACX_site7107] | 9.64
TTTGAACGAAAATACTCACACATATTTATAAACATT [CACACA_site5182] | 9.69
GTATTTTTAAATGACACACACATATATATATATATA [CACACA_site1662] | 10.1
ATTTTTCATATATATATATTAATATATATATATTAA [CACACA_negctrl_site1681] | 9.61
AAAAATATATTATATGTACACACAAAATTAAGGGAT [CACACA_site8384] | 10.1

Sequence | gcPBM binding intensity (ln)
TGAATATTTATACATGCACACTAAAATAAAGAATCT [CACACA_site5351] | 9.79
TATAAATAGGCATATACACACTTTTAATATTCATAA [CACACA_site6123] | 9.66
TCTTTCTCTCTTCAAAGTACATATAATATATACTTC [XGTACX_site7982] | 9.65
CAGTTAATGTTGGTACTTTATATAAAAATGATATGA [CACACA_negctrl_site1600] | 9.54
ATAACAACATTTGATAAACACACAGAAGTATAAATA [CACACA_site8739] | 9.88
AAAATATAGTTATCAATATATAATATTTTTTTTTTA [CACACA_negctrl_site459] | 9.38
TTATTAATATTGCATGCACACTATATAATAATTGAA [CACACA_site8258] | 9.63
TTTGATATAGAAAGAGCATGCAAGTTAGATAAAATA [TGCATGCA_site470] | 9.75
TATATATTAATATACACACACACATATATATATATA [CACACA_site1608] | 10.3
AATAAATTATTATGTACACACATAATAGTATATATA [CACACA_site1820] | 9.83
AAAACATACCTATATACACACATATAAATATAAATA [CACACA_site6956] | 10.1
TCATGTTTTACAAAAACACACAAATGAATATAAACA [CACACA_site4775] | 9.57
TATATACATAGACACCCACACACAAAAAAAAAAAAA [CACACA_site8186] | 10.2
AATAAATAAAAATTATGTACATATATAAAAAATACA [XGTACX_site8581] | 9.82
TCGAATTTGGAAAGAAGTACATGAAGCCAACATATG [XGTACX_site5222] | 9.61
TTTCAAACTGTTCTCACACACGAAATTAGAAATGAA [CACACA_site4509] | 9.74
AAAACAAAATAGGGAACACACACATGTCAATATATA [CACACA_site8834] | 10.5
TTTTTTTTTTTTTGGTTCACACTGAAAAGAGAGATA [GTGCAC_negctrl_site439] | 9.21
TTTTGTTATTTTGAAGTGCACTTTCCACTTAATATA | 9.74
CAATCATGGTTTTACACACACATGCATGTGAAAATT [CACACA_site4870] | 9.8
AAAAGTGATGAGACAAGTACTAACATATTATTATTA [XGTACX_site1533] | 9.75
TTTTCTGTATAAACTTGTACATATATTTCCTTGTTT [XGTACX_site5745] | 9.8

Sequence | gcPBM binding intensity (ln)
AAATATATATGTATATGTACTTATTTATTTAAAAGG [XGTACX_site4093] | 9.6
TTTATTATATATAAAAGTACACATTGTAAGGAAACA [XGTACX_site8560] | 9.78
ATACCTATTTGATGAGTGCATTATCCAATATATGTA | 9.59
ATGTTTTACAAAAACACACAAATGAATATAAACATA [CACACA_site6667] | 9.72
AAATAAAATATCAATTAAAACAGAATTGAATTTTTA [CACACA_negctrl_site181] | 9.6
ATATGTTCTACAAAAAAGATGTCGATTTATTTTCTT [CACACA_negctrl_site1179] | 9.55
ACACATATGCATATATGTACATAATATATTAAACTT [XGTACX_site5975] | 9.86
TAAAAAATAAATATATGTACGCAATAAATGTGTTAA [XGTACX_site4043] | 9.69
AAAAAAAAAAGACACACACACACACTAATACATACA [CACACA_site6473] | 11.4
GCAAATGTGAAAACGTGTACACATTTTATTTAATTT [XGTACX_site8000] | 9.65
ATAATATATGTATATCCACACACATATATATATATA [CACACA_site8471] | 10.1
ATTTAAGATTTAATCACACACATATATATTATATAC [CACACA_site2907] | 9.99
AAATGTAGATATTATCGTACACATATATTTATATAT [XGTACX_site6326] | 9.6
TATTTGTAAATCGATACACACATATATATTAATATA [CACACA_site196] | 9.71
AAAAAAAAAAAAAAATGTACAAATAGTAGTTACAGA [XGTACX_site2531] | 9.69
AACATGTTAAAATAAACACACAGCTAAGGTTTTTTT [CACACA_site157] | 9.72
TATATAAATATATATGTACACACATATACATGTTGA [CACACA_site9022] | 9.8
ATAATATCTTTATGTGTGCACATATATATATATATA | 10.2
TTGTTTATTTTTTATTACTATAAAGATGTTATATAT [CACACA_negctrl_site1506] | 9.59
TAAATAATTTATAAGTGTACTATTATTGCACGAATA [XGTACX_site7715] | 9.46
AAAAAAAACAGACACACACACATAAATATATATAAA [CACACA_site148] | 10.4
ATGATTTTTTCTGTATGTACATAAAAATAAAATTCT [XGTACX_site5698] | 9.44
